Experimental data from patent US5856127A, “Antimicrobial peptides” (The Research Foundation of State University of New York, priority 1996, dated 1999).
Converted amounts (≈) assume the structure as drawn. Part of at least one peptide drawing is inferred or uncertain, most often the ends. Where a SMILES comes first, the peptide text is derived from it.

Tests used:
Assay type in all cases: cell-based
Fusarium oxysporum = experiment: MIC against fungal conidia (Fusarium oxysporum); conditions: f. sp. lycopersici strain 73, PDAmb pH 5.2, scored at 6 days
Procedure: (§1) Dilutions of peptides, prepared in sterile deionized water, were placed (20 μl aliquots) in Corning disposable sterile polystyrene ELISA plates (96 well, high binding) which had been pretreated with bovine serum albumin by rinsing each well with 200 μl of a 1.0 mg/ml solution.
(§2) Media (PDAmb, pH 5.2) was prepared with deionized water, Difco potato dextrose broth (12 g/L), Sigma D,L-methionine (0.05 g/L), Sigma biotin (2 mg/L), and FisherBiotech low melting point agarose (20 g/L). Sterilized media was added to the wells to make a final volume of 100 μl and allowed to harden for 3 hr prior to inoculation with 10 μl of conidial suspension. Peptide concentrations tested were 0, 1.25, 2.5, 5, 10, 15, 20, 25, 50, 100, 150, 200, and 250 μM.
(§3) Fungal conidial suspensions were aseptically prepared from agar plate cultures of C. parasitica and S. musiva or liquid cultures for F. oxysporum f.sp. lycopersici. Conidia were suspended from agar plates with 10 ml sterile 1% Tween 20. All culture suspensions were filtered through four layers of sterile cheesecloth, collected in sterile 15 ml Falcon tubes, and centrifuged for 3 min at 1900×g. The pellets were then suspended in 10 ml sterile deionized water and centrifuged for 3 min at 1900×g. The "washed" pellets were suspended in 5 ml sterile deionized water. The conidial concentration was determined using a hemocytometer (Fisher ultra plane, Neubauer ruling) and then diluted to 1.0×10^4 conidia/ml.
(§4) Approximately 100 conidia (10 μl) were transferred to each microtitre plate well. Microtitre plates were incubated in ambient light at room temperature in a moist chamber (plastic box containing wet paper towels and covered with clear plastic wrap). Tests with S. musiva used continuous light. Plates were scored for growth at 6 days and photographed. All tests were repeated 4 or more times. Controls without peptides were included with all tests.

Cryphonectria parasitica = experiment: MIC against fungal conidia (Cryphonectria parasitica); conditions: strain EP42, PDAmb pH 5.2, scored at 6 days
Procedure: as §1, §2, §3, §4

Septoria musiva = experiment: MIC against fungal conidia (Septoria musiva); conditions: strain 92-49C, PDAmb pH 5.2, scored at 6 days, total prevention of germination
Procedure: as §1, §2, §3, §4

Pseudomonas syringae = experiment: MIC against bacteria (Pseudomonas syringae); conditions: Collection PSS34, no visible lawn or colonies after 3 days
Procedure: as §1
(§5) Bacterial suspensions of A. tumefaciens, E. amylovora, and P. syringae were obtained from liquid cultures grown in Luria Broth (Atlas and Parks 1993). Cultures were grown at 25°C. on a rotary shaker (110 rpm) for 14 hr. Bacterial cell suspensions with an optical density between 0.7 and 0.85 at 600 nanometers (OD600) were used for assay inoculations. Dilutions of peptides were placed in the 96-well ELISA plates as described above. The final peptide concentrations tested were 0, 0.625, 1.25, 2.5, 5, 10, 15, 20, 25, 50, 100, and 250 μM. All tests were repeated 2 or more times. Controls without peptides were included with all tests. The MIC for bacterial cells was the lowest peptide concentration associated with no visible bacterial lawn or isolated colonies on the medium after 3 days in all the repeated tests.

Erwinia amylovora = experiment: MIC against bacteria (Erwinia amylovora); conditions: Collection 88-100, no visible lawn or colonies after 3 days
Procedure: as §1, §5

CSCC[C@H](N)C(=O)N[C@@H](C)C(=O)N[C@@H](CO)C(=O)N[C@@H](CCCNC(=N)N)C(=O)N[C@@H](C)C(=O)N[C@@H](C)C(=O)NCC(=O)N[C@@H](CC(C)C)C(=O)N[C@@H](C)C(=O)N[C@@H](C)C(=O)N[C@@H](CCCNC(=N)N)C(=O)N[C@@H](CC(C)C)C(=O)N[C@@H](C)C(=O)N[C@@H](CCCNC(=N)N)C(=O)N[C@@H](CC(C)C)C(=O)N[C@@H](C)C(=O)N[C@@H](CC(C)C)C(=O)N[C@@H](CCCNC(=N)N)C(=O)N[C@@H](C)C(=O)N[C@@H](CC(C)C)C(=O)O [ESF1] (H-MASRAAGLAARLARLALRAL-OH)
MIC, Fusarium oxysporum (Fusarium oxysporum): 2.5 µM (≈ 5.13 µg/mL)
MIC, Cryphonectria parasitica (Cryphonectria parasitica): 2.5 µM (≈ 5.13 µg/mL)
MIC, Septoria musiva (Septoria musiva): 5 µM (≈ 10.3 µg/mL)

CC(C)C[C@H](NC(=O)CNC(=O)[C@H](C)NC(=O)[C@H](C)NC(=O)[C@H](CCCNC(=N)N)NC(=O)[C@H](CO)NC(=O)[C@H](C)N)C(=O)N[C@@H](C)C(=O)N[C@@H](C)C(=O)N[C@@H](CCCNC(=N)N)C(=O)N[C@@H](CC(C)C)C(=O)N[C@@H](C)C(=O)N[C@@H](CCCNC(=N)N)C(=O)N[C@@H](CC(C)C)C(=O)N[C@@H](C)C(=O)N[C@@H](CC(C)C)C(=O)N[C@@H](CCCNC(=N)N)C(=O)O [ESF17] (H-ASRAAGLAARLARLALR-OH)
MIC, Fusarium oxysporum (Fusarium oxysporum): 250 µM (≈ 434 µg/mL)
MIC, Cryphonectria parasitica (Cryphonectria parasitica): 100 µM (≈ 174 µg/mL)
MIC, Septoria musiva (Septoria musiva): 250 µM (≈ 434 µg/mL)

CC(C)C[C@H](NC(=O)[C@H](C)NC(=O)[C@H](CC(C)C)NC(=O)[C@H](CCCNC(=N)N)NC(=O)[C@H](C)NC(=O)[C@H](CC(C)C)NC(=O)[C@H](CCCNC(=N)N)NC(=O)[C@H](C)NC(=O)[C@H](C)NC(=O)[C@H](CC(C)C)NC(=O)CNC(=O)[C@H](C)NC(=O)[C@H](C)NC(=O)[C@H](CCCNC(=N)N)NC(=O)[C@@H](N)CO)C(=O)O [ESF15] (H-SRAAGLAARLARLAL-OH)
MIC, Fusarium oxysporum (Fusarium oxysporum): 25 µM (≈ 37.7 µg/mL)

CSCC[C@H](N)C(=O)N[C@H](C(=O)N[C@@H](CO)C(=O)N[C@@H](CCCNC(=N)N)C(=O)N[C@@H](C)C(=O)N[C@@H](C)C(=O)NCC(=O)N[C@@H](CC(C)C)C(=O)N[C@@H](C)C(=O)N[C@@H](C)C(=O)N[C@@H](CCCNC(=N)N)C(=O)N[C@@H](CC(C)C)C(=O)N[C@@H](C)C(=O)N[C@@H](CCCNC(=N)N)C(=O)N[C@@H](CC(C)C)C(=O)N[C@@H](C)C(=O)N[C@@H](CC(C)C)C(=O)N[C@@H](CCCNC(=N)N)C(=O)N[C@@H](C)C(=O)N[C@@H](CC(C)C)C(=O)O)C(C)C [ESF1B] (H-MVSRAAGLAARLARLALRAL-OH)
MIC, Fusarium oxysporum (Fusarium oxysporum): 1.25 µM (≈ 2.6 µg/mL)

CSCC[C@H](N)C(=O)N[C@@H](C)C(=O)N[C@@H](C)C(=O)N[C@@H](CCCNC(=N)N)C(=O)N[C@@H](C)C(=O)N[C@@H](C)C(=O)NCC(=O)N[C@@H](CC(C)C)C(=O)N[C@@H](C)C(=O)N[C@@H](C)C(=O)N[C@@H](CCCNC(=N)N)C(=O)N[C@@H](CC(C)C)C(=O)N[C@@H](C)C(=O)N[C@@H](C)C(=O)N[C@@H](CC(C)C)C(=O)N[C@@H](C)C(=O)N[C@@H](CC(C)C)C(=O)N[C@@H](CCCNC(=N)N)C(=O)N[C@@H](C)C(=O)N[C@@H](CC(C)C)C(=O)O [ESF6] (H-MAARAAGLAARLAALALRAL-OH)
MIC, Fusarium oxysporum (Fusarium oxysporum): 10 µM (≈ 19.5 µg/mL)
MIC, Cryphonectria parasitica (Cryphonectria parasitica): 10 µM (≈ 19.5 µg/mL)
MIC, Septoria musiva (Septoria musiva): 5 µM (≈ 9.76 µg/mL)

CSCC[C@H](N)C(=O)N[C@@H](C)C(=O)N[C@@H](CO)C(=O)N[C@@H](CCCNC(=N)N)C(=O)N[C@@H](C)C(=O)N[C@@H](C)C(=O)NCC(=O)N[C@@H](CC(C)C)C(=O)N[C@@H](C)C(=O)N[C@@H](CCCNC(=N)N)C(=O)N[C@@H](CCCNC(=N)N)C(=O)N[C@@H](CC(C)C)C(=O)N[C@@H](C)C(=O)N[C@@H](CCCNC(=N)N)C(=O)N[C@@H](CC(C)C)C(=O)N[C@@H](C)C(=O)N[C@@H](CCCNC(=N)N)C(=O)N[C@@H](CCCNC(=N)N)C(=O)N[C@@H](C)C(=O)N[C@@H](CC(C)C)C(=O)O [ESF5] (H-MASRAAGLARRLARLARRAL-OH)
MIC, Fusarium oxysporum (Fusarium oxysporum): 5 µM (≈ 10.9 µg/mL)
MIC, Cryphonectria parasitica (Cryphonectria parasitica): 10 µM (≈ 21.8 µg/mL)
MIC, Septoria musiva (Septoria musiva): 5 µM (≈ 10.9 µg/mL)

CSCC[C@H](N)C(=O)N[C@@H](C)C(=O)N[C@@H](CO)C(=O)N[C@@H](CCCNC(=N)N)C(=O)N[C@@H](C)C(=O)N[C@@H](C)C(=O)NCC(=O)N[C@@H](CC(C)C)C(=O)N[C@@H](C)C(=O)N[C@@H](C)C(=O)N[C@@H](CCCNC(=N)N)C(=O)N[C@@H](CC(C)C)C(=O)N[C@@H](C)C(=O)N[C@@H](CCCNC(=N)N)C(=O)N[C@@H](CC(C)C)C(=O)N[C@@H](C)C(=O)N[C@@H](CC(C)C)C(=O)N[C@@H](CCCNC(=N)N)C(=O)O [ESF12] (H-MASRAAGLAARLARLALR-OH)
MIC, Fusarium oxysporum (Fusarium oxysporum): 20 µM (≈ 37.4 µg/mL)
MIC, Pseudomonas syringae (Pseudomonas syringae): 250 µM (≈ 467 µg/mL)
MIC, Erwinia amylovora (Erwinia amylovora): 250 µM (≈ 467 µg/mL)
MIC, Cryphonectria parasitica (Cryphonectria parasitica): 10 µM (≈ 18.7 µg/mL)
MIC, Septoria musiva (Septoria musiva): 2.5 µM (≈ 4.67 µg/mL)
